What is called % Inhibition is the drop in the measured response relative to a control, in per cent.

SMILES strings stand for the structures. The whole screen tested about 150,000 compounds, of which about 540 (0.36%) showed an effect of 50% or more. Some of the results follow.

This experiment concerns Plasmodium falciparum. The experiment can be described thus: Primary screen in NF54 nanoGlo assay, in single point, at 2uM, 72h; a lower Z score goes with more inhibition. It is filed as functional, Erythrocyte. As to conditions: timepoint 72 hour.
`CC1CCC(N2C[C@@H](C(=O)NS(=O)(=O)CC3CCC3)CC2=O)CC1` (stereo partly specified): the “% Inhibition” value was -4% and the Z score was found to be 0.7.

For the molecule `O[C@H]1CCCN(Cc2ccccc2OCc2c(F)cccc2Cl)CC1`, the “% Inhibition” value is reported as -23% and the Z score is given as 2.21.

Turning to `CC(=O)N1CCCN(Cc2ccnc(NC(=O)OC(C)(C)C)c2)CC1`, the “% Inhibition” value is recorded as -6% and the Z score came to 1.1.

Turning to `COCCn1cnc2cc(NC(=O)C3CCCCC3)cc(C(=O)N3CCNC(=O)C3)c21`, the “% Inhibition” value is recorded as 3% and the Z score is reported as -0.55.

For `CC(C)(C)NC(=O)Nc1ccc(Cl)cc1F`, the “% Inhibition” value worked out at 1% and the Z score is -0.22.

Consider `CC(C)(CCS(C)(=O)=O)NC(=O)Nc1ccc(Cl)c(F)c1`, for which the “% Inhibition” value is given as 2% and the Z score is -0.26.

Consider `Cc1oc(C(C)C)cc1C(=O)NC[C@H]1CCCN(S(C)(=O)=O)C1`, for which the “% Inhibition” value is listed as -10% and the Z score is given as 1.15.

For the molecule `CN(CC(=O)N1CCN(S(=O)(=O)c2cccc(F)c2)CC1)C1CCCCCC1`, the “% Inhibition” value is listed as -16% and the Z score was determined as 2.65.

Take `OC1(CCCNC2CCN(C3CC3)C(c3ccccc3)C2)CCC1` (stereo unspecified): the “% Inhibition” value is on record as -8% and the Z score worked out at 1.49.

As to `Cc1ccc(-n2nc(C)c3nc(CCC(=O)NCc4ccc5c(c4)OCO5)c(=O)n(C)c32)cc1`, the “% Inhibition” value was -5% and the Z score is on record as 0.66.

In the case of `C[C@@](CO)(NCC(=O)NCC1CCC1)C1CCCCC1`, the “% Inhibition” value is given as -9% and the Z score was found to be 1.12.

For `NC(=O)C1CCN(C(=O)CNc2ccc3ccccc3c2)CC1`, the “% Inhibition” value came out at 1% and the Z score was -0.17.

Regarding `CCOc1ccc(NC(=O)N2C[C@@H]3CCCN3c3ccccc32)cc1`, the “% Inhibition” value is -8% and the Z score is given as 1.04.

As for `COCCNC(=O)NC(=O)COc1ccc(Cl)cc1Br`, the “% Inhibition” value was -11% and the Z score was determined as 1.42.

With `COc1ccc(CNC(=O)N2CCCCCNC(=O)[C@@H]3CCCC[C@@H]32)cc1`, the “% Inhibition” value is listed as -8% and the Z score stood at 1.06.

On to `Cc1nc(CN2C[C@@H]3CC[C@H]2CN(C(=O)c2cnccn2)C3)c2ccccn12`, for which the “% Inhibition” value is -10% and the Z score is reported as 1.63.

Take `COc1ccc2c(c1)N1CCN(c3cnccn3)CC1C(C(=O)NCC1CC1)C2` (stereo unspecified): the “% Inhibition” value worked out at 11% and the Z score is -1.23.

Turning to `CC(C)C(=O)N1CCN(c2ccc(NC(=O)c3ccc4c(c3)OCCO4)cc2Cl)CC1`, the “% Inhibition” value is recorded as 2% and the Z score is given as -0.34.

Regarding `COc1cc(OC)cc(C(O)CNC(C)C2(C)CCCO2)c1` (stereo unspecified), the “% Inhibition” value was -19% and the Z score was found to be 3.36.

As for `Cc1ncsc1CN1CCC(n2c(C)nn(C)c2=O)CC1`, the “% Inhibition” value is 7% and the Z score is -1.01.

Consider `N#CC1C(c2cccs2)C(C(N)=O)C(=O)NC1(O)c1ccccc1` (stereo unspecified), for which the “% Inhibition” value is -4% and the Z score was 0.43.

With `COc1ccc(N(C(=O)c2ccccc2F)C2(C(=O)Nc3c(C)cccc3C)CCCC2)cc1`, the “% Inhibition” value was determined as 4% and the Z score is -0.56.

As for `CC(=O)N1CCN(C(=O)C2CC3CCCC(C2)C3=O)CC1` (stereo unspecified), the “% Inhibition” value turned out to be 5% and the Z score is on record as -0.43.

On to `CNC(=O)c1nnsc1N1CCN(Cc2ccccc2)CC1`, for which the “% Inhibition” value is recorded as -36% and the Z score is listed as 4.21.

As to `O=C(Nc1ccc2nccn2c1)N1Cc2cccnc2N2CCC[C@@H]2C1`, the “% Inhibition” value is recorded as -3% and the Z score came out at 0.58.

Regarding `CCN(CC(=O)Nc1ccc2c(c1)OCCO2)C(=O)CCc1c(C)noc1Cl`, the “% Inhibition” value is listed as 21% and the Z score is on record as -2.61.

`CCCN(C)C(=O)c1cc2cn(C(C)C)cc2s1`: the “% Inhibition” value is given as -12% and the Z score is 2.38.

For the molecule `Cc1nnc(CN2CCO[C@H](c3ccc(S(C)(=O)=O)cc3)C2)s1`, the “% Inhibition” value is reported as -14% and the Z score worked out at 1.78.

As for `Cc1ccc(C)c([C@@H](NC(=O)c2cc(C)nc(N)n2)c2cccnc2)c1`, the “% Inhibition” value was -2% and the Z score is recorded as 0.39.

As to `O=C(NC1CC2CCC1O2)c1cc(Cl)cc(F)c1Br` (stereo unspecified), the “% Inhibition” value is listed as -2% and the Z score is on record as 0.44.

`COc1cccc(-c2nc3ccc(C(=O)NCCN4CCCC[C@@H]4CO)cc3o2)c1`: the “% Inhibition” value was -6% and the Z score is recorded as 0.95.

On to `Cc1nc(C(C)C)sc1CNC(=O)c1cnc(O)cn1`, for which the “% Inhibition” value is reported as -6% and the Z score is 0.88.

Turning to `O=C(NCCc1cccs1)c1ccc2ccccc2n1`, the “% Inhibition” value is reported as -8% and the Z score turned out to be 1.09.

As for `CCCc1nc(C)cc(N2CCC3(CC2)CNC(=O)O3)n1`, the “% Inhibition” value is on record as -7% and the Z score stood at 1.4.

For `O=C(CC1(O)CCCC1)NCc1cccc(C(F)(F)F)n1`, the “% Inhibition” value was determined as 3% and the Z score is -0.35.

In the case of `COC[C@H](C)NC(=O)CS(=O)(=O)c1ccc(F)cc1F`, the “% Inhibition” value turned out to be 0% and the Z score worked out at 0.03.

For the molecule `CN(C)c1ccccc1NC(=O)NC(C)(C)C(=O)NCC(C)(C)C`, the “% Inhibition” value is -16% and the Z score is reported as 2.01.

As to `CCN1CCCC[C@@H]1CNc1cnc(C(=O)OC)cn1`, the “% Inhibition” value is recorded as -3% and the Z score came out at 0.47.

On to `CC(C)(C)NC(=O)N1CC[C@@]2(CCCNC2=O)C1`, for which the “% Inhibition” value is listed as 2% and the Z score was -0.23.

For the molecule `Cc1ccc(CN(C)c2ccnc(C(F)(F)F)n2)o1`, the “% Inhibition” value stood at 9% and the Z score is on record as -1.31.

Consider `c1ccc(-n2nnnc2CN2CCCC2)cc1`, for which the “% Inhibition” value is -25% and the Z score stood at 2.51.

Consider `CN(c1cccc(NC(=O)c2ccc(N(Cc3ccc(Cl)cc3)S(C)(=O)=O)cc2)c1)S(C)(=O)=O`, for which the “% Inhibition” value is listed as -14% and the Z score is given as 1.74.

`O=C([C@H]1CC(=O)N(c2cccc(O)c2)C1)N1CCc2[nH]cnc2C1`: the “% Inhibition” value was -16% and the Z score is 2.98.

Values taken from ChEMBL document CHEMBL4888484, “Replenishing the malaria drug discovery pipeline: Screening and hit evaluation of the MMV Hit Generation Library 1 (HGL1) against asexual blood stage Plasmodium falciparum ,using a nano luciferase reporter read-out” (2022).
